Laboratory results as given in PMC12136788.
The list shows a part of the results.

T1: UNK ZnF1-3 (human, UniProt Q9C0B0 31-174)
T1 sequence: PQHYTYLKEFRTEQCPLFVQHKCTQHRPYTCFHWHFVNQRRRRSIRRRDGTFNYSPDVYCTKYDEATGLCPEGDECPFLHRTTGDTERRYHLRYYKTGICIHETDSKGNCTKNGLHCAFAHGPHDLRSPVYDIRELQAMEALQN

B1: chr7:116176368:116176369:+_ENSMUSG00000031028_ENSMUST00000033341|mus_hu|motif|central (ssRNA)
RNA: GGGAGUUCUACAGUCCGACGAUCAGACACACACAUACACAGACGGACACAGAGCACCUUGGAGCCAGAAGGAAAGGAAAGCGGGACUUGGAGAAGAGUUGGGGAAGUGAACUUCACCACUCUGCAGAAUUGUUCUGGGGCAGACAACAGAGGAUUGAGCAUCA
B2: chrX:71549400:71549401:+_ENSMUSG00000019087_ENSMUST00000019231|mus_hu|mus_mus_mus_hu_False|18_88 (ssRNA)
RNA: GGGAGUUCUACAGUCCGACGAUCGCAGUAGGAAGAGGGAAGCUCUUCAUCCACUGUCGCUGCAGGGUGGGAAAGCAACAACACGGACACCGUCCCACCCUCAACCCCCCCACUGGCAUGUCACACAACAAUCUGGGUCAAAGACAACAGAGGAUUGAGCAUCA
B3: chr19:12856456:12856457:+_ENSG00000198356_ENST00000357332|hu_mus|FALSE|FALSE (ssRNA)
RNA: GGGAGUUCUACAGUCCGACGAUCCACGAUGGUCGGGAAGUUCAGGAGCCUGAGUGUAUGGCCGGUGGGUGCUGUGUCGAACACUACCACUGAGAAGUUCAUGCCUUUCACCAGCCUCAUGACCUCAGCAUAACUCAUGGCUUCCAACAGAGGAUUGAGCAUCA
B4: chr12:98992399:98992400:+_ENSG00000075415_ENST00000552981|hu_hu|FALSE|FALSE (ssRNA)
RNA: GGGAGUUCUACAGUCCGACGAUCUUUGGGAGCUGCAUCCCUCAAAGUGUUGGCAUAACCUGGCUGGGUUUGAAUUCGAACCUUAGCAGCUUCCAUAGGAGCCAGGGCAAUGUCAGCAAAGAAUUCAGCACUGGCAGAGGCAGCCAACAGAGGAUUGAGCAUCA
B5: chr2:49626764:49626765:+_ENSMUSG00000026764_ENSMUST00000028102|mus_mus|FALSE|FALSE (ssRNA)
RNA: GGGAGUUCUACAGUCCGACGAUCCAAGCACGUAUCUGUGCACACAAAUUCUACACAGCGCAAACACCUGAAUCUGGUGUACUACAGACGGCUGGGCAAGCAAGUGUAAAAAGAAACGGAAACUGUAUAGGAGGGGACAGAAAGCAACAGAGGAUUGAGCAUCA
B6: chr2:155973683:155973684:-_ENSMUSG00000027620_ENSMUST00000109587|mus_hu|motif|central (ssRNA)
RNA: GGGAGUUCUACAGUCCGACGAUCCAUGAACAUUUUAAAAGGCAGAACAAGAGAACAGUUUUGUAUACAGUGGGAUUUACGGUUUAGGGAGAAUGAGCACACUGCAUUCCUGUUAACAUUUUUAUUUUUUCAAGGUAACAGGAACAACAGAGGAUUGAGCAUCA
B7: 6378618_6387458_547_CDS_ENSG00000097021_ENST00000608083|human|control|control (ssRNA)
RNA: GGGAGUUCUACAGUCCGACGAUCGUAGCUGACAGUGUUCGGCUCUGGGUUGAGGACUGGCUGGACGAUGUCCCCGUUCCUCCACUUGGUCUCCAUGCGCUCCAGCUUCUGGGCUUCAUACCGCUUCCGGCCCUCCUCCUCCUGCAACAGAGGAUUGAGCAUCA
B8: chr2:122217683:122217684:-_ENSG00000074054_ENST00000409078|hu_mus|motif|central (ssRNA)
RNA: GGGAGUUCUACAGUCCGACGAUCACGCAAGUGUUGAAAGAAGUUAUCGUACUCAGCAGCCCCAGCCAAGAGUAACGAUCGGAUCUUUUUUAGAGCAUUUACUCUCUGCUCCCAGUCAUGCUUGUCAUCUGACAGGAUUUCUCUCAACAGAGGAUUGAGCAUCA
B9: chr18:77733610:77733611:-_ENSG00000141759_ENST00000592957|hu_mus|FALSE|FALSE (ssRNA)
RNA: GGGAGUUCUACAGUCCGACGAUCCUCAUCUCACGGAUCCUCCAGCUCUACAGCAAUGUCGGGCUGCAGGGCCUUUCCAGAGGCUACGAGAGCAGAGUAUUUCUAUGUGGAAGAGGCUCUCAGUGUCCUUUGCACAGCCUGAGGCAACAGAGGAUUGAGCAUCA
B10: chr10:60895279:60895280:-_ENSMUSG00000020091_ENSMUST00000020288|mus_hu|FALSE|FALSE (ssRNA)
RNA: GGGAGUUCUACAGUCCGACGAUCCACUGGAAGAUGUUUAAUUAAAAAGUUGCUGUUCAAAAUUGUACUGAAAACAUAUCUAAAAAUAGGUCUGUAGUCAUCUUAAAAAUAAAAGGUCACUUCUCAGAUAAGAGGAGUGACAGACAACAGAGGAUUGAGCAUCA
B11: chr11:114320625:114320626:+_ENSG00000076043_ENST00000544827|hu_hu|motif|central (ssRNA)
RNA: GGGAGUUCUACAGUCCGACGAUCAACUCACGGUCUUCUCAUUUUCCCCAUUUUCUAUAAUUUUCCUCUUCUUUUCAUCGGUUUUUUUCUUGAAGAUGUUAUUUCGGUAAAACUGAAGCUCUUUGAUGCUUUCACUAAUGUCAUCAACAGAGGAUUGAGCAUCA
B12: chr18:74380996:74380997:+_ENSMUSG00000024560_ENSMUST00000025444|mus_hu|FALSE|FALSE (ssRNA)
RNA: GGGAGUUCUACAGUCCGACGAUCGUCGACGGGGACAGUCCCUCUGAUAAAGGCAGAUGGGCGGUCAACCGGUGGAUGGGCACAGGGAGAACCGGAGAAACAGAUGAGUGGAGGAACGGACACACGGGCACCGGGCGGCUCCCCCAACAGAGGAUUGAGCAUCA
B13: chr11:77336104:77336105:-_ENSG00000074201_ENST00000525064|hu_mus|hu_hu_hu_mus_False|8_78 (ssRNA)
RNA: GGGAGUUCUACAGUCCGACGAUCCUCACACAUUGCUGUGAACAUCGCCUCCAAUGCUGAUUUAUCACUGGGCACAAAUCGAAAUUCAGAAAUGGGUUCAACAUCAUCAUUGUCUUCCUCAUCUUCAUCAUCAGCAAGUUCUUUCAACAGAGGAUUGAGCAUCA
B14: chr9:15127005:15127006:-_ENSMUSG00000046111_ENSMUST00000161132|mus_mus|FALSE|FALSE (ssRNA)
RNA: GGGAGUUCUACAGUCCGACGAUCCCAGAUUGGAAUAGGGCUCCGAAAUGGACAGGAUUUUAAUAUGUGCUCUGCUUGUGCUAGCUGACAUACAUUUCCUACAGCUUCUGUAGUGUCAGUUUCAAUGAAGUUCUGAAUUGGCUUCAACAGAGGAUUGAGCAUCA

What follows are binders tested against T1, UNK ZnF1-3 (assay: nsRBNS (natural sequence RNA bind-n-seq); RBNS binding buffer (assumed for nsRBNS): 25 mM Tris pH 7.5, 150 mM KCl, 3 mM MgCl2, 0.01% Triton X-100, 500 ug/ml BSA, 20 U/ml SUPERase-In, 4 C; UNK is unkempt and MSI1 is Musashi-1; names of the RNAs are library labels; protein concentration not given here; high values mean tight binding).

Q: How did the binding signal turn out when B1 was run?
A: 2.65 enrichment R

Q: B2 was tested. Which binding signal did it give?
A: 0.927 enrichment R

Q: For B3, which binding signal is on record?
A: 0.738 enrichment R

Q: Which binding signal does the source give for B4 here?
A: 1.1 enrichment R

Q: For B5, which binding signal is on record?
A: 1.79 enrichment R

Q: Which binding signal does the source give for B6 here?
A: 1.32 enrichment R

Q: For B7, which binding signal is on record?
A: 0.536 enrichment R

Q: How did the binding signal turn out when B8 was run?
A: 0.734 enrichment R

Q: Which binding signal does the source give for B9 here?
A: 0.833 enrichment R

Q: How did the binding signal turn out when B10 was run?
A: 1.66 enrichment R

Q: How did the binding signal turn out when B11 was run?
A: 0.459 enrichment R

Q: Which binding signal does the source give for B12 here?
A: 1.99 enrichment R

Q: How did the binding signal turn out when B13 was run?
A: 0.91 enrichment R

Q: B14 was tested. Which binding signal did it give?
A: 0.664 enrichment R
